Laboratory results as given in the supplement of paper PMC12217912.
The list shows a part of the results. The full chains were built here from the parent and the listed change. Inactive controls read about 0.05.

B1: TEV protease; numbered along this chain (parent)
chain: MGESLFKGPRDYNPISSSICHLTNESDGHTTSLYGIGFGPFIITNKHLFRRNNGTLVVQSLHGVFKVKDTTTLQQHLVDGRDMIIIRMPKDFPPFPQKLKFREPQREERICLVTTNFQTKSMSSMVSDTSCTFPSGDGIFWKHWIQTKDGQCGSPLVSTRDGFIVGIHSASNFTNTNNYFTSVPKNFMELLTNQEAQQWVSGWRLNADSVLWGGHKVFMVKPEEPFQPVKEATQL

Variants of: B1
Assay: raw area under fraction-flipped curve 0-4 h after induction (AUC4h, not background-subtracted), DNA-recorder readout of cleavage of the substrate (dimensionless); higher = more cleavage of the substrate by the protease variant
Conditions: temperature: 34 °C; time window: 0-4 h after rhamnose induction
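Also: Bxb1 expression induced with 0.2% (w/v) L-rhamnose at OD600 near 0.5, cultures sampled hourly, flipped fraction per protease–substrate barcode pair counted by paired-end Illumina sequencing.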

| Variant | area with substrate ENLYFDS | area with substrate ENLYFFS | area with substrate ENLYFIS | area with substrate ENLYFKS | area with substrate ENLYFLS | area with substrate ENLYFMS | area with substrate ENLYFPS | area with substrate ENLYFVS | area with substrate ENLYFWS | area with substrate ENLYFES | area with substrate ENLYFHS | area with substrate ENLYFNS | area with substrate ENLYFTS | area with substrate ENLYFYS | area with substrate ENLYFGS | area with substrate ENLYFRS | area with substrate ENLYFSS | area with substrate ENLYFCS |
| --- | --- | --- | --- | --- | --- | --- | --- | --- | --- | --- | --- | --- | --- | --- | --- | --- | --- | --- |
| I43G | 0.0464 | 0.0507 | 0.0379 | 0.0417 | 0.0532 | 0.0457 | 0.0561 | 0.0314 | 0.0519 |  |  |  |  |  |  |  |  |  |
| I43F |  |  | 0.0584 |  | 0.0662 | 0.053 | 0.0507 | 0.0467 |  | 0.0533 | 0.0543 | 0.0409 | 0.0499 | 0.057 |  |  |  |  |
| P14D | 0.0476 | 0.0654 | 0.0748 | 0.0598 | 0.0501 | 0.065 | 0.0553 | 0.057 | 0.0638 | 0.0638 | 0.056 | 0.0563 | 0.0908 | 0.0608 | 0.0401 | 0.0516 | 0.0674 |  |
| V217D |  | 0.0584 | 0.0525 |  |  | 0.0556 | 0.0645 |  | 0.0627 |  |  |  | 0.0617 |  |  |  | 0.066 | 0.0582 |
| V200M |  |  | 0.0547 | 0.0586 | 0.0593 | 0.0388 | 0.0596 | 0.0585 | 0.0784 | 0.0533 | 0.0545 | 0.0835 |  | 0.0544 |  | 0.053 |  | 0.0559 |
| P155V | 0.0481 | 0.0722 | 0.059 | 0.0767 |  | 0.0547 | 0.0577 |  |  | 0.0513 | 0.064 | 0.0722 | 0.0549 |  |  | 0.0571 |  | 0.0347 |
| I139W | 0.0607 | 0.0673 | 0.0536 | 0.0693 |  | 0.0627 | 0.0526 | 0.0389 | 0.0655 | 0.0653 | 0.0699 |  | 0.0579 |  | 0.0734 | 0.0635 |  |  |
| K142R | 0.0547 | 0.0456 | 0.0604 | 0.0596 |  | 0.0673 | 0.0737 | 0.0662 | 0.0674 | 0.0557 | 0.0613 |  | 0.0581 | 0.0517 |  | 0.0448 |  | 0.0632 |
| G138V | 0.0771 |  | 0.0521 |  |  |  |  | 0.0484 | 0.0573 |  | 0.0644 | 0.0794 | 0.0765 |  |  | 0.101 |  |  |
| T71P |  | 0.0648 | 0.0659 | 0.0644 |  |  |  |  | 0.0757 | 0.0478 |  | 0.0499 | 0.0686 |  | 0.0597 | 0.0458 |  |  |
| T147W | 0.0604 | 0.0463 | 0.0576 | 0.0626 | 0.0595 | 0.0609 | 0.0665 |  | 0.0798 | 0.0626 | 0.0513 |  | 0.0461 | 0.0647 | 0.0671 |  | 0.0509 |  |
| Q59M | 0.0624 | 0.0557 | 0.0466 | 0.053 | 0.0516 | 0.0511 | 0.0682 | 0.0519 | 0.0577 |  |  |  | 0.0196 | 0.0582 | 0.0476 | 0.0589 | 0.0754 |  |
| S154F | 0.0649 | 0.0731 | 0.0541 |  | 0.0513 | 0.056 |  |  | 0.0562 |  |  | 0.0444 |  |  |  | 0.07 |  |  |
| E195M |  |  | 0.0432 |  |  | 0.0627 | 0.0547 |  | 0.0823 | 0.0571 |  | 0.0574 | 0.0582 | 0.0568 |  | 0.0552 |  | 0.0611 |
| N193T | 0.0571 | 0.0447 | 0.0476 |  | 0.0595 | 0.0879 |  |  | 0.0402 | 0.0385 | 0.0606 |  |  | 0.0514 |  | 0.0641 | 0.0627 |  |
